Test results taken from PubChem BioAssay AID1259418 (Broad Institute, 2018).
About 840 (25%) of roughly 3,400 compounds were called active. This list was built around the results that the source calls inconclusive (neither active nor inactive); the mix of calls is not that of the screen.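 How the source made its calls: active means fitted half-maximal concentration of signal decrease at or below twice the sample's top tested concentration; inconclusive means flat curve between -70 and -30 percent, or poor fit; inactive means flat within 30 percent, signal rise, or potency above limit.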

Assay: T. gondii growth inhibition with IFN-gamma, dose response, cell-based, ME49Luc, HeLa, luciferase, 72 h (AID 1259418)
Details: T. gondii ME49Luc in IFN-y HeLa, hits give low values, -100% = high-dose IFN-γ control wells; at 19.5 µM unless noted

Compound	max activity
COc1cccc(S(=O)(=O)N2CCCCN3[C@H](C2)[C@H](c2ccc(C#CCC(C)C)cc2)[C@@H]3CO)c1	inconclusive: -103%
O=C(CCC1N=C2c3ccccc3N=C(SCc3cccc(F)c3)N2C1=O)NCCc1ccccc1 (stereo not given)	inactive: 28.7%
Cc1ccccc1CNC1=NCCNC12CCN(S(=O)(=O)c1ccc3c(c1)CCCC3)CC2	inconclusive: -26.9%
COc1cccc(NC(=O)N2CC(=O)N3[C@H](CO)[C@@H](c4ccc(C#CCC5CCCC5)cc4)[C@H]3C2)c1	inconclusive: -71.4%
Cc1ccc(S(=O)(=O)N2CCC3(CC2)NCCN=C3NCc2ccc(Cl)cc2)c(C)c1	inconclusive: -68.5%
CC1CCN(c2nc(-c3ccc(Cl)cc3)nc3ccccc23)CC1	inactive: 5% [at 10 µM]
O=C(CC1Nc2c3ccccc3nc(=S)n2C1=O)N1CCC(O)(c2cccc(C(F)(F)F)c2)CC1 (stereo not given)	inconclusive: 252%
CCOC(=O)C1CCCN(C(=O)Cn2cccc2-c2nc(-c3ccc(C)cc3)cs2)C1 (stereo not given)	inactive: -28.8%
CCOC(=O)c1ccc(NC(=O)Nc2ccc(-c3nc(-c4ccccc4)co3)cc2)cc1	inconclusive: 44.6%
O=C(NCc1cccc(F)c1)Nc1ccc(-c2nc(-c3ccccc3)co2)cc1	inconclusive: -5.89%
Cc1ccc(C)c(NC(=O)CN2CCC3(CC2)N=C(c2ccc(F)cc2)C(=O)N3)c1	inactive: 21.8% [at 10 µM]
COc1cccc(-c2nn(CC3CC3)c3c2[C@@H]2CN(C(=O)c4ccccc4)C[C@@H]2C3)c1	inconclusive: 9.38% [at 5 µM]
COc1ccc2c(c1)NC1(CCN(C(=O)c3ccccc3C(F)(F)F)CC1)c1cccn1-2	inconclusive: -41.7% [at 0.16 µM]
Cc1oc(-c2cccc(Cl)c2)nc1CN1CCN(C(=O)Nc2cccc(Cl)c2)CC1	inactive: 10.8% [at 0.35 µM]
CC(C)C#Cc1ccc([C@H]2[C@@H](CO)N(C(=O)c3cccc(F)c3)[C@H]2C#N)cc1	inconclusive: -47.2% [at 5 µM]
Clc1ccc(-c2nc(NCc3cccs3)c3ccccc3n2)cc1	inactive: 13.5% [at 0.35 µM]
Cc1ccc(-c2coc(-c3ccc(NC(=O)NCc4ccco4)cc3)n2)c(C)c1	inconclusive: -29.3% [at 0.16 µM]
CC(C)N1c2ccc(F)cc2[C@@H]2CN(C(=O)c3ccco3)CC[C@H]21	inconclusive: 33%
Cc1ccc(S(=O)(=O)N2[C@@H]3CNC[C@H]2C3c2ccc(/C=C/c3ccccc3)cc2)cc1 (stereo not given in full)	inconclusive: -24.4%
C/C=C/c1ccc([C@H]2[C@@H](CO)N3C(=O)CN(C(=O)Nc4cccc(OC)c4)C[C@@H]23)cc1	inconclusive: 21.1% [at 2.6 µM]
N#Cc1ccc(C(=O)N2CCC3(CC2)Nc2cc(F)ccc2-n2cccc23)cc1	inconclusive: -25.7% [at 0.16 µM]
CCOC(=O)CSC1=Nc2ccccc2C2=NC(CC(=O)NC3CCCCC3)C(=O)N12 (stereo not given)	inactive: -18.7% [at 10 µM]
COc1ccc(NC(=O)N2CCc3nc(-c4ccccc4)sc3C2)cc1OC	inactive: -8.38% [at 0.35 µM]
COc1ccc(-c2nc(Nc3ccccc3OC)c3ccccc3n2)cc1	inactive: 20%

Compound	max activity
COc1ccc(-c2nc(CN(c3ccc(OC)cc3)S(=O)(=O)c3ccccc3C)c(C)o2)cc1	inactive: 2.45%
COc1ccc2c(c1)NC1(CCN(C(=O)COc3ccc(Cl)cc3)CC1)c1cccn1-2	inconclusive: -31.4% [at 0.16 µM]
CCN(CCNc1nc(-c2ccc(OC)cc2)nc2ccccc12)Cc1ccccc1	inconclusive: -58.9% [at 0.35 µM]
Cc1ccc(-n2ncc3c(NC4CCCCC4)ncnc32)c(C)c1	inconclusive: 82.9% [at 5 µM]
CCc1ccccc1Nc1ncnc2c1cnn2-c1ccc(Cl)cc1	inconclusive: 200% [at 10 µM]
Cc1ccccc1Nc1ncnc2c1cnn2-c1ccc(Cl)cc1	inconclusive: 89.9% [at 0.35 µM]
Cc1noc(C)c1S(=O)(=O)N1CCC[C@@H]1C(=O)NCCc1csc(-c2ccccc2)n1	inconclusive: -116% [at 2.6 µM]
CCc1ccc(S(=O)(=O)N2CCc3nc(N4CCCC4)nc(C)c3CC2)cc1	inconclusive: -35.5%
O=C(c1c(F)cccc1F)N1CCC2(CC1)Nc1ccc(Cl)cc1-n1cccc12	inconclusive: -13.4% [at 10 µM]
CCOc1ccccc1NC(=O)Nc1ccc(-c2nc(-c3ccccc3)co2)cc1	inconclusive: 60.6% [at 10 µM]
O=C(Cn1c(=O)c(S(=O)(=O)c2ccccc2)cc2ccccc21)NCc1ccco1	inactive: 8.5% [at 0.16 µM]
O=C(c1cccc(Cl)c1)N1CCC2(CC1)Nc1ccc(Cl)cc1-n1cccc12	inconclusive: -29.9% [at 10 µM]
CCc1ccc(S(=O)(=O)N2CCc3nc(-c4ccc(OC)cc4)sc3C2)cc1	inactive: 9.57%
CCc1ccc(S(=O)(=O)N2CCC3(CC2)NCCN=C3NCc2ccc(Cl)cc2)cc1	inactive: 17.4% [at 10 µM]
Cc1ccc(-c2nc(Cn3nnc(-c4nc(-c5cccc(Cl)c5)no4)c3C)c(C)o2)cc1	inconclusive: -40.3% [at 0.16 µM]
CCc1nc(OCC(=O)Nc2ccc(Cl)cc2C(F)(F)F)c2ccccc2n1	inconclusive: -66.6% [at 0.68 µM]
CCOc1ccc(-c2nc3c(s2)CN(S(=O)(=O)c2ccccc2C)CC3)cc1	inconclusive: -60.8% [at 0.68 µM]
Cc1ccc(S(=O)(=O)N2CSC[C@@H]2C(=O)NCCc2csc(-c3ccccc3)n2)cc1C	inconclusive: -57.3% [at 10 µM]
Cc1ccc(-c2nc(-c3noc4ccc(C(=O)N5CCCN(C)CC5)cc34)co2)cc1	inconclusive: 31.3% [at 5 µM]
COC[C@H]1CN(C)C[C@]12CCN(C(=O)c1cc3ccccc3s1)C2	inactive: 13.1%
COc1ccccc1N(Cc1nc(-c2ccccc2)oc1C)S(=O)(=O)c1ccccc1	inactive: -5.89% [at 0.35 µM]
Cc1oc(-c2cccc(Cl)c2)nc1CSc1nc2c(c(=O)[nH]1)CN(Cc1ccc(F)cc1)CC2	inactive: 15.7%
O=C(c1ccc(Cn2cncn2)cc1)N1CCC(N2CCCCC2)CC1	inactive: 4.24% [at 10 µM]
Cc1ccc(C)c(-c2coc(-c3ccc(NC(=O)Nc4cccc(F)c4)cc3)n2)c1	inactive: 9.94% [at 2.6 µM]

Compound	max activity
CSc1cccc(Nc2nc(-c3ccc(Cl)cc3)nc3ccccc23)c1	inconclusive: -33.1%
O=C(c1ccccc1C(F)(F)F)N1CCC2(CC1)Nc1ccc(Cl)cc1-n1cccc12	inconclusive: 15.8% [at 0.68 µM]
CCc1ccc(OCC(=O)Nc2ccc(-c3nc(-c4ccccc4)co3)cc2)cc1	inconclusive: 276% [at 10 µM]
CN(C)CC(=O)N1[C@@H](C#N)[C@@H](c2ccc(C#CC3CCCCC3)cc2)[C@@H]1CO	inconclusive: -36.5%
CCOC(=O)CSC1=Nc2ccccc2C2=NC(CCC(=O)NCc3ccco3)C(=O)N12 (stereo not given)	inconclusive: 123% [at 5 µM]
CCOc1ccc(-c2nc(CN(c3ccccc3OCC)S(=O)(=O)c3ccccc3)c(C)o2)cc1	inconclusive: -54.4% [at 10 µM]
COc1ccc(CCNc2nc(SCc3cccc(F)c3)nc3ccccc23)cc1OC	inactive: 12% [at 5 µM]
CCCn1c(=O)c(C)cn2nc(N)nc12	inconclusive: 28.4%
COc1ccc(-c2ccc([C@H]3[C@H](C#N)N(C(=O)NC(C)C)[C@H]3CO)cc2)cc1	inconclusive: 14.9% [at 2.6 µM]
Cc1ccc(N(Cc2nc(-c3cccc(C)c3)oc2C)S(=O)(=O)c2cccs2)cc1	inactive: -8.42% [at 0.16 µM]
Cc1ccc(CNC2=NCCNC23CCN(S(=O)(=O)c2ccc(C)cc2C)CC3)cc1	inconclusive: -67.5%
CC(C)CC(=O)Nc1ccc(-c2nc(-c3ccccc3)co2)cc1	inconclusive: 39.9% [at 10 µM]
O=C(NCCc1c[nH]c2ccc(Cl)cc12)c1cc(-c2ccccn2)nc2ccccc12	inconclusive: 9.33% [at 10 µM]
Cc1ccc(NS(=O)(=O)c2cc3c4c(c2)CCC(=O)N4CCC3)c(C)c1	inactive: 4.48% [at 2.6 µM]
COc1cccc(-c2nc3c(s2)CN(S(=O)(=O)c2ccc(C)cc2)CC3)c1	inconclusive: 10.9% [at 10 µM]
Cc1nc(-c2ccc(F)cc2)sc1-c1ccc(SCC#N)nn1	inconclusive: 108% [at 10 µM]
Cc1ccc(-c2coc(-c3ccc(NS(=O)(=O)c4ccc(Cl)s4)cc3)n2)c(C)c1	inconclusive: 23.3% [at 5 µM]
COc1ccccc1-c1noc(C2CCCN2C(=O)Cc2c[nH]c3ccccc23)n1 (stereo not given)	inactive: -7.96% [at 0.35 µM]
COc1ccc(-c2noc(-c3nnn(Cc4nc(-c5ccccc5OC)oc4C)c3C)n2)cc1OC	inactive: 11.4% [at 0.16 µM]
COc1ccc(CCC(=O)N2CCC3(CC2)Nc2cc(F)ccc2-n2cccc23)cc1	inactive: 14.7% [at 0.68 µM]
COc1cccc(-c2nc(C)c(-c3ccc(SCc4ccccn4)nn3)s2)c1	inconclusive: 115% [at 10 µM]
COc1cccc(S(=O)(=O)N2CC[C@@H]3[C@H]2c2cc(C#Cc4cccnc4)ccc2N[C@@H]3CO)c1	inactive: 31.2% [at 5 µM]
